# Source: publication PMC4336329 (PLoS ONE, 2015)
# Among all 310,000 compounds or so, about 2,200 (0.71%) showed an effect of 50% or more. Effects have a minus sign here. The list shows a part of the results.
# Target: human ether-à-go-go-related gene (hERG) potassium channel (human, UniProt Q12809)
# Experiment: primary screen, population patch clamp on CHO cells stably expressing hERG
# Sequence of human ether-à-go-go-related gene (hERG) potassium channel (Q12809 whole entry, looked up): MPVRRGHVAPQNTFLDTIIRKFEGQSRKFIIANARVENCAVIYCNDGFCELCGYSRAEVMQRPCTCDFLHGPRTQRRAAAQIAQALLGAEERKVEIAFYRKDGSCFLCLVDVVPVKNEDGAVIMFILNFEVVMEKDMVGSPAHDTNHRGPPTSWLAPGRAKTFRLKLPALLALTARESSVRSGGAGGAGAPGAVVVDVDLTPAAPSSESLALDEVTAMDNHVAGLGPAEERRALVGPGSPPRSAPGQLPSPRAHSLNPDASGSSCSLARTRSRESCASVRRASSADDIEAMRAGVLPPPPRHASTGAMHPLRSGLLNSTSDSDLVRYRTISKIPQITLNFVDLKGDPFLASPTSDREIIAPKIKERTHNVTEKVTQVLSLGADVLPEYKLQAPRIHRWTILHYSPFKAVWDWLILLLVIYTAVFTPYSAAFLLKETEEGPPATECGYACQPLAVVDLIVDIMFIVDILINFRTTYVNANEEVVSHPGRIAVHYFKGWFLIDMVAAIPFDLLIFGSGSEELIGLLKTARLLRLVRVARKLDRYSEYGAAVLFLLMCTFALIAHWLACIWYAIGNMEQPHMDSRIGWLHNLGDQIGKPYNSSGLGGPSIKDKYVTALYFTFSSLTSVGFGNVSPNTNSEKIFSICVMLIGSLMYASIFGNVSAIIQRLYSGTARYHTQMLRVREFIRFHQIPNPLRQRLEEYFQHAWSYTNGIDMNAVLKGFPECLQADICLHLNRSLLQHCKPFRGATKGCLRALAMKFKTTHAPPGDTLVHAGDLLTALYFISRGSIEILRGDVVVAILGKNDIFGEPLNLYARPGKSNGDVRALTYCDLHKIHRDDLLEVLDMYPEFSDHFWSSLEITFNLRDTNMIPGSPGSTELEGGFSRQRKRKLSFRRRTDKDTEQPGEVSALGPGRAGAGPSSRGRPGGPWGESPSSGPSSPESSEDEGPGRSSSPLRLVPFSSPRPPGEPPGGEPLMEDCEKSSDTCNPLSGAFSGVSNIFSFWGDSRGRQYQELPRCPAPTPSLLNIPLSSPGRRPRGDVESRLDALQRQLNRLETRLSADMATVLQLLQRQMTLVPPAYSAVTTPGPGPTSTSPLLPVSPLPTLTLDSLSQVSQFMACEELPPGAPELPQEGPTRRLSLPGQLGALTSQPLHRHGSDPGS
row,SMILES,"hERG current change (%, negative = inhibition) at 1uM [%]"
1,COCc1cc(C)n(CC(=O)Nc2ccc(Cl)cc2Cl)c(=O)c1C#N,10.7
2,CC(=O)c1cc2c(cc1NC(=O)CCc1c(C)nc3ncnn3c1C)OCO2,8.93
3,CCOC(=O)C1(Cc2cccc(OC)c2)CCCN(C(=O)c2cc(C)[nH]n2)C1 (stereo not drawn),1.62
4,C/C(=N\NC(=O)c1nnn(-c2nonc2N)c1CSc1ccccc1)c1ccco1,13.7
5,Cc1ccc(C)c(NC(=O)C(CC(=O)O)Cc2ccccc2)c1 (stereo not drawn),10.9
6,O=C(C1CCCC1)N1CCCC(Nc2ccccc2)C1 (stereo not drawn),-1.84
7,CCOC(=O)N1CCC(NC(=O)CCC(=O)c2ccccc2)CC1,3.19
8,Cc1ccc(C(=O)N/C(=C\c2ccc(C(C)C)cc2)C(=O)NCCCN2CCOCC2)cc1,-61.4
9,CCCOc1ccc(NC(=O)CCC(=O)NC(C)c2ccccc2)cc1 (stereo not drawn),18.7
10,Cc1nn(-c2ccccc2)c(Cl)c1C(=O)NC1CCCCC1,13.2
11,CC(=O)Nc1cccc(NC(=O)C2CC(=O)N(C3CCCCC3)C2)c1 (stereo not drawn),0.859
12,C=CCNc1nc(N(c2ccccc2)c2ccccc2)nc(-n2ccnc2)n1,2.6
13,Cc1cccc(NC(=O)C(=O)C2C(=O)Nc3ccccc32)c1 (stereo not drawn),2.41
14,CC1CCCCC1NC(=O)COC(=O)c1cccn1C (stereo not drawn),7.83
15,C=C1CCC[C@]2(C)C[C@H]3OC(=O)C(CN[C@@H](C)c4ccccc4)[C@H]3CC12 (stereo partly drawn),9.34
16,O=C(NCc1ccco1)C1CCCN(c2nnc(-n3cccc3)s2)C1 (stereo not drawn),-5.96
17,COc1ccc(O)c(-c2[nH]ncc2C(=O)c2cccc(C)c2)c1,14.5
18,O=[N+]([O-])c1ccc(O)c(N=Cc2sc3ccccc3c2O)c1,7.29
19,O=C(NCC1CCCN(Cc2ccc3c(c2)OCCO3)C1)c1ccc2c(c1)OCO2 (stereo not drawn),3.91
20,COc1ccc(N(CC(=O)Nc2cccc(C(C)=O)c2)S(=O)(=O)c2ccc(NC(C)=O)cc2)cc1,13.9
21,CCOc1c(Cl)cc(/C=N/O)cc1OC,14.2
22,O=C(CSc1oc(-c2ccccc2)nc1S(=O)(=O)c1ccccc1)NCC1CCCO1 (stereo not drawn),17.8

row,SMILES,"hERG current change (%, negative = inhibition) at 1uM [%]"
1,Fc1ccc(C2=NN(c3ccccc3)C(c3ccco3)C2)cc1 (stereo not drawn),6.45
2,COc1ccc(N2CCN(C(=O)c3cc4c(-c5ccc(Cl)cc5)nn(C)c4s3)CC2)cc1,-2.22
3,O=C(Cc1ccc(S(=O)(=O)N2CCOCC2)s1)N1CCN(S(=O)(=O)c2cccc([N+](=O)[O-])c2)CC1,8.41
4,O=P(C(c1ccc2c(c1)OCO2)N1CCOCC1)(N1CCOCC1)N1CCOCC1 (stereo not drawn),9.69
5,Brc1ccccc1/C=N/Nc1ccccn1,13.9
6,CCOC(=O)CCC(NC(=O)c1ccccc1C(=O)NC(CCC(=O)OCC)C(=O)OCC)C(=O)OCC (stereo not drawn),-0.173
7,C/C(=N/OC(=O)c1c(-c2c(F)cccc2Cl)noc1C)c1cnccn1,7.54
8,CCCCCn1c(SCCc2ccccc2)nc2c1c(=O)[nH]c(=O)n2C,0.944
9,COc1ccc(N2CC(C(=O)OC(C)C(=O)c3ccccc3)CC2=O)cc1 (stereo not drawn),19.1
10,CS(=O)(=O)N(CC(=O)NCc1ccncc1)C1CCCCC1,4.61
11,CC(=O)N(CC(=O)Nc1sc(C)c(C)c1C(N)=O)Cc1ccccc1,8.25
12,CCC(C(=O)Nc1ncccn1)(C(F)(F)F)C(F)(F)F,10.6
13,Cc1ccc(NC(=O)CN2C(=O)NC3(CCC(C)CC3)C2=O)c(Cl)c1 (stereo not drawn),10.3
14,CCCCCCSc1ccc([C@H]2N[C@@](CC(C)C)(C(=O)OC)[C@H]3C(=O)N(C)C(=O)[C@@H]23)cc1OC.O=C(O)C(F)(F)F,-10
15,CCOc1ccc2c(c1)-c1c(ssc1=S)C(C)(C)N2C(=O)c1ccco1,10.9
16,Cc1ccc(S(=O)(=O)c2c(N)n(-c3ccccc3)c3nc4ccccc4nc23)cc1,14.2
17,CC[C@@H](C)[C@H](NC(=O)Cc1c(C)c2c(cc(C)c3c(C)coc32)oc1=O)C(=O)O,11
18,Cn1cc(CN2CCN(Cc3cccnc3)CC2)c(-c2ccc3c(c2)OCCO3)n1,-1.66
19,COc1ccc(NC(=O)N2CCCCC2)cc1,-3.8
20,Cc1ccc(NC(=O)C(=O)NCCN2CCN(S(C)(=O)=O)CC2)cc1,8.89
21,CCOC(=O)C1=C(C)NC(=O)NC1c1ccc(-c2ccc(Cl)cc2)o1 (stereo not drawn),2.14
22,CCc1c(C(=O)Nc2ccccc2C(N)=O)csc1C,5.86

row,SMILES,"hERG current change (%, negative = inhibition) at 1uM [%]"
1,C=CCSc1nc(N)c(C#N)c(-c2ccc(C)cc2)c1C#N,5.21
2,Cc1nc2ccc(NC(=S)N3CCOCC3)cc2nc1C,11.4
3,Cl.OCCN1CCN(CC(O)COc2ccc(-c3ccccc3)cc2)CC1 (stereo not drawn),-13.5
4,Cc1cc(C(=O)CSc2nnnn2-c2ccccc2)c(C)n1-c1ccc2c(c1)OCO2,5.36
5,CCN(CC)S(=O)(=O)c1ccc(N2CCOCC2)c(NS(=O)(=O)c2ccc(C(C)C)cc2)c1,5.31
6,Nc1c(S(=O)(=O)c2cccs2)c2nc3ccccc3nc2n1CCc1ccccc1,3.16
7,CN(C)S(=O)(=O)c1ccc(S(=O)(=O)N2CCCC(C(=O)NC3CC3)C2)cc1 (stereo not drawn),13.9
8,COc1ccc(OC)c(-n2c(SCC(N)=O)nnc2-c2c[nH]c3ccccc23)c1,6.16
9,Cc1ccc(N(C(C)C(=O)N2CCCCC2)S(C)(=O)=O)cc1C (stereo not drawn),3.16
10,Cc1ccc2sc(=O)[nH]c2c1,17.6
11,O=C(C1CC1)n1cc(C(=S)N2CCOCC2)c2ccccc21,5.21
12,COc1ccc(Br)cc1CNC(=O)C1CCN(S(=O)(=O)N2CCCC2)CC1,-10
13,O=C(COC(=O)/C=C/c1ccc(F)cc1)Nc1cccc(S(=O)(=O)N2CCCC2)c1,13
14,Nc1nc(NCCc2ccccc2)nc(NCc2ccccc2)c1[N+](=O)[O-],13.7
15,Cc1ccc(/C=N/NC(=O)c2csc(C)c2)o1,12.2
16,N/C(=N\OC(=O)c1ccc(Cl)cc1[N+](=O)[O-])c1ccccn1,9.63
17,CC1(C)CC(C(=O)Nc2ccccc2)C(=O)O1 (stereo not drawn),12.6
18,CCN(CC)S(=O)(=O)c1ccc2c(c1)nc(CCC(=O)O)n2CC,13.9
19,O=[N+]([O-])c1ccc(-c2c(-c3ccccc3)ncc3cc(F)ccc23)cc1,8.54
20,COCC(=O)N1CCC(Oc2ccc(C(=O)NCCc3ncccc3C)cc2)CC1,15.7
21,CN1CCN(NC(=O)Nc2cccc(F)c2)CC1,10.1
22,Cc1ccc(C)c(NC(=O)CN(C)C(=O)CN2C(=O)NC3(CCc4ccccc43)C2=O)c1 (stereo not drawn),7.82

row,SMILES,"hERG current change (%, negative = inhibition) at 1uM [%]"
1,Cn1cnc(C(=O)N2CCN(C(=O)OC(C)(C)C)CC2)c1C(=O)N1CCN(C(=O)OC(C)(C)C)CC1,15.7
2,CC1(C)N=C(/C=N/O)CN1O,14
3,Cc1oc(CC(C)C)c(CN2CCCC2)c1C(=O)O.Cl,3.8
4,Nc1nc(SCC(=O)NCCN2CCOCC2)nc2sc3c(c12)CCC3,-11.5
5,O=C(Nc1cccc(S(=O)(=O)N2CCCCC2)c1)c1cnccn1,3.58
6,Cc1cc(/C=C2/NC(=O)NC2=O)c(C)n1-c1ccc(C#N)cc1,3.44
7,O=C(/C=C/c1cccs1)N1CCCC1,13.7
8,COc1ccccc1/C=C/C(=O)N1CCOCC1,12.4
9,C=CCN(CC=C)C(=S)NC(=O)c1ccc([N+](=O)[O-])cc1,11.4
10,COc1ccc(CCNC(=O)C2CCCN2C(=O)Nc2ccc(Cl)cc2)cc1OC (stereo not drawn),8.1
11,CC(=O)NC(Cc1ccccc1C)C(=O)NC1CCN(C(=O)c2cccc(C)c2)CC1 (stereo not drawn),28.8
12,CC1CN(C(=O)COC(=O)c2ccc(S(=O)(=O)N(C)C)cc2)CC(C)O1 (stereo not drawn),15.2
13,Cc1ccccc1NC(=O)c1ccc2ccccc2c1,3.72
14,O=C(Cc1ccccc1)N1CCC2(CC1)NCCc1[nH]cnc12,20.4
15,CC(C)C(NC(=O)c1ccc(C(C)(C)C)cc1)C(=O)NC1=NCCS1 (stereo not drawn),3.43
16,CCOc1ccc(OCC)c(NC(=O)c2ccc(CNc3c(N4CCOCC4)c(=O)c3=O)cc2)c1,7.51
17,COc1cccc(C2=NOC(C(=O)Nc3ccc(OC)c(OC)c3)C2)c1 (stereo not drawn),-2.07
18,CN(C)C1(CNC(=O)C2CCN(S(=O)(=O)c3cccc(C(F)(F)F)c3)CC2)CCCCC1,-14.1
19,Cc1cc(C)n2nc(C(=O)Nc3ccc(S(=O)(=O)N4CCCC4)cc3)nc2n1,0.932
20,CC(C)C(=O)NCC(c1cccs1)S(=O)(=O)c1ccc(F)cc1 (stereo not drawn),14.1
21,CC(C)CNC(=O)c1cc(=O)[nH]c2ccc(S(=O)(=O)Nc3ccc(F)cc3)cc12,10.8
